Source: PMC4336329 (PLoS ONE, 2015)
About 14,000 (4.5%) of roughly 310,000 compounds showed an effect of 50% or more. Effects have a minus sign here. The list shows a part of the results. Where a SMILES comes first, the peptide text is derived from it. [ ]: non-standard residue; d: D form. Inp = O=C(O)C1CCNCC1

Molecular target: human ether-à-go-go-related gene (hERG) potassium channel (human, UniProt Q12809)
Assay: primary screen, population patch clamp on CHO cells stably expressing hERG
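Also: peak tail current of the secondary pulse compared with the same well before compound.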

Chain of human ether-à-go-go-related gene (hERG) potassium channel (Q12809 whole entry, looked up): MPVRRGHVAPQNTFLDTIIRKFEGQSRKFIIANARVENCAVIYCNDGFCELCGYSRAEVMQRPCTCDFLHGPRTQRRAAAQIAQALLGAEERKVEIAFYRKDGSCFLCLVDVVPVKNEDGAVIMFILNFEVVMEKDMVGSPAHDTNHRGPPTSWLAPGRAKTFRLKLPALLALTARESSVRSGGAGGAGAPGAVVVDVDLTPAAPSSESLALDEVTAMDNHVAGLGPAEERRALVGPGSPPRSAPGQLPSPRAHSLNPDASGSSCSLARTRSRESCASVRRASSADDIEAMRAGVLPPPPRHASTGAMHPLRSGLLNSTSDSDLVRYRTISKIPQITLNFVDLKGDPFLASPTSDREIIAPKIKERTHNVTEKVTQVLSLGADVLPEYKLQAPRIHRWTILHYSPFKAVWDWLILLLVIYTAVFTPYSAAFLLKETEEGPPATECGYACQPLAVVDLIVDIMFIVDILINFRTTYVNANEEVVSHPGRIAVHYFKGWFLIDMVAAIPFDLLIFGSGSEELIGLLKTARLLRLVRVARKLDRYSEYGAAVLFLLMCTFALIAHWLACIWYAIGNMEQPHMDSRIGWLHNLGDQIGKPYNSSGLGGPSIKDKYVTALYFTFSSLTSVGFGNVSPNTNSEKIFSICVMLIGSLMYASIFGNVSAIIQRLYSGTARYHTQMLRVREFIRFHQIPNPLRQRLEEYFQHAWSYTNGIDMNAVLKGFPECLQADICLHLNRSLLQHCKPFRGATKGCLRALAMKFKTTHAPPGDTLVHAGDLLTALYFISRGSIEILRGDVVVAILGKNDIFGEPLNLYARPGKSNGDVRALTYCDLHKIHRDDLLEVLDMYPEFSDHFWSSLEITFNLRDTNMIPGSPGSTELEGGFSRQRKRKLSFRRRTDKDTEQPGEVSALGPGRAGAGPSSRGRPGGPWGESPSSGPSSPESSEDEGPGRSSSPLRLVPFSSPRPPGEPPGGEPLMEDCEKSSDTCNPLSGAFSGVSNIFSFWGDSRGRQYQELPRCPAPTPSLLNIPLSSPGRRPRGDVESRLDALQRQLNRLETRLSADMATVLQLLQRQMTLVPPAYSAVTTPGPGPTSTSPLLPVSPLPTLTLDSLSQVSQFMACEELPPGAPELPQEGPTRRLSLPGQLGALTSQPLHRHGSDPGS

SMILES | hERG current change (%, negative = inhibition) at 10uM
CC(C)(C)c1ccc(-c2nc3[nH]c(=O)cc(NC(=O)c4ccco4)n3n2)cc1 | 21%
CCCSCCCNC(=O)Cn1cc2c(n1)CCC(C)C2 (stereo not drawn) | -12.8%
CCN1CCN(c2nc3c(C)cccn3c(=O)c2/C=C(\C#N)C(=O)NC)CC1 | 8.87%
COCC(C)n1c(C)cc(C(=O)COc2ccc(S(=O)(=O)N3CCOCC3)cc2Cl)c1C (stereo not drawn) | -11.9%
COc1ccc(-c2c(NC(=O)c3ccco3)oc3ccc(Cl)cc3c2=O)cc1 | 19.7%
Cc1ccc2c(Cl)c(C(=O)NCC3CCCO3)sc2c1 (stereo not drawn) | -12.8%
COc1ccc(/C=N/n2cnnc2SCc2ccccc2)cc1 | -2.99%
O=C(NCCc1cccc(Cl)c1)c1cc([N+](=O)[O-])ccc1Cl | -51%
Cc1ccc(N2CCN(C3=NC(=O)/C(=C\c4cn[nH]c4-c4ccccc4)S3)CC2)cc1 | 2.07%
CCOC(=O)/C=C1\NC2(CCCCC2)Cc2cc(OC)c(OC)cc21 | 0.854%
COCCN1C(=O)N[C@@H](c2cccc(F)c2)C(C(=O)OC)=C1C | -30.9%
O=C(O)c1sccc1Oc1ccc(NS(=O)(=O)c2ccccc2)cc1 | 19.6%
CCCCn1c(N)c(N(CC(C)C)C(=O)c2ccc(N3C(=O)c4ccccc4C3=O)cc2)c(=O)[nH]c1=O | -0.0389%
CC(C)c1csc(CN2CCC(N3CCC(C(=O)NCC4CCCO4)CC3)CC2)n1 (stereo not drawn) | -20.5%
CCOC(=O)c1ccc(N2C=C(C(=O)OC)C(c3ccc(OC)c(O)c3)C(C(=O)OC)=C2)cc1 | 16.9%
CC(C)[C@H](NC(=O)c1ccccc1Cl)C(=O)OCc1cc([N+](=O)[O-])cc2c1OCOC2 | -23.8%
O=C1CCCN1CCCNC(=S)Nc1ccc(F)cc1 | 8.5%
Cc1ccc(-n2c(C)nc3ccccc3c2=O)c(C)c1 | 4.03%
C=CCn1c(SCC(=O)c2cc(C)n(CC3CCCO3)c2C)nnc1-c1ccccc1 (stereo not drawn) | -13.8%
Cc1ccc(-c2csc3nc[nH]c(=O)c23)cc1 | 6.88%
CCC(=O)Nc1ccc(C(=O)OCC(=O)c2cccs2)cc1 | 9.97%
C/C(=N\NC(=O)c1ccc(Cl)cc1)c1ccc2[nH]ccc2c1 | 17.4%
CN(C(=O)COC(=O)C1=COCCO1)C1(C#N)CCCCC1 | 5.87%

SMILES | hERG current change (%, negative = inhibition) at 10uM
Cc1c(C(=O)N2CCOCC2)oc2ccc(S(=O)(=O)N3CCCC3)cc12 | -10.6%
CC(Sc1nnc(-c2ccc(Cl)cc2)n1N)C(=O)NCC1CCCO1 (stereo not drawn) | 9.08%
CCOC(=O)c1ccc(NC(=O)CCNC(=O)c2ccc([N+](=O)[O-])cc2)cc1 | -46.9%
COCCNC(=O)c1cc(-c2ccc(Cl)c(Cl)c2)on1 | 2.9%
COCCOC(=O)c1c(C)n(C)c2ccc(OC(=O)C3CC3)cc12 | -1.05%
O=C(c1cc([N+](=O)[O-])[nH]n1)N1CCSCC1 | 12.5%
COc1ccc(N/N=C/c2c(O)n(-c3ccc(C)c(C)c3)c(=O)[nH]c2=O)cc1 | 9.95%
C=C1CCN([C@H](C(=O)NCc2ccco2)C(C)C)S(=O)(=O)c2ccccc21 | -7.84%
Cc1ccc2c(c1)N(C(=O)CCC(=O)NCc1cccnc1)CCO2 | -11.5%
O=C(CSc1nnc(-c2ccc(Br)cc2)n1C1CCCCC1)N1CCCC1 | -28.7%
COc1ccc(NC(=S)NCCN2CCC(C)CC2)cc1 | -46%
Cc1cccn2c(=O)c(C=Nc3ccccc3)c(NCCO)nc12 | -9.1%
O=C(NC1(O)C(=O)c2ccccc2C1=O)c1c(Cl)cccc1Cl | 17.3%
CC(=O)O.Cc1nc2nc(CSc3nnc(C)s3)cc(=O)n2[nH]1 | 13.9%
CCc1nc2cccnc2n1-c1ccc(CC(=O)NCCOC)cc1 | 17%
CCCCCCCCS(=O)CCC(=O)O (stereo not drawn) | 21.6%
N#Cc1ccc(C(=O)CSc2n[nH]c(=O)n2-c2cccnc2)cc1 | -19.3%
CC(=O)c1ccc(N2CCN(C(=S)NCc3ccco3)CC2)cc1 | -47%
O=C1NC(=O)C(=C2CCCCCC2)S1 | 1.1%
CCc1ccc(C(C(=O)NC(C)(C)CC)N(Cc2ccco2)C(=O)Cn2nnc3ccccc32)cc1 (stereo not drawn) | 12.9%
Cc1ccc(CS(=O)(=O)CCC(=O)NCCC(C)C)cc1 | 3.21%
COc1ccc(-c2nnc(SC)o2)c(OC)c1 | 9.73%
C/C(=N\N=C1\NC(=O)C(CC(=O)Nc2ccc(C)c(Cl)c2)S1)C(C)(C)C (stereo not drawn) | 8.73%

SMILES | hERG current change (%, negative = inhibition) at 10uM
CCN(CC)S(=O)(=O)c1cccc(NC(=O)COc2ccc(F)cc2Br)c1 | 10.7%
Clc1ccc(CCNc2ncnc3c2nnn3Cc2ccccc2)cc1 | 1.86%
Cc1cccc(C)c1N1CCN(c2c(C)cccc2C)CC1 | 16.7%
COc1ccccc1CNC(=O)C(C)NS(=O)(=O)c1ccc(Br)cc1 (stereo not drawn) | 4.27%
CC(C)c1ccc(NC(=O)COC(=O)c2c[nH]c(=O)[nH]c2=O)cc1 | 13.2%
O=C1CS/C(=N/N=C/c2ccccc2)N1Cc1ccco1 | 1.4%
CN1CCCC1CCNc1ccc2oc3ccccc3c(=O)c2c1 (stereo not drawn) | -33.9%
Cc1cc(C)c2c(C)[nH]nc2n1 | 20.7%
Cc1ccccc1C(=O)NNC(=S)NC(=O)c1cccnc1 | 15.4%
O=c1cc(N2CCCCC2)c(-c2ccccc2)nn1Cc1ccc(F)cc1 | -14.6%
CCOC(=O)C1=C(c2ccccc2)N=c2s/c(=C\c3ccco3)c(=O)n2C1c1cccs1 (stereo not drawn) | 24.9%
O=C(NCCN=C1NS(=O)(=O)c2ccccc21)c1ccco1 | 0.103%
CCC12CC3CC(C1)CC(C(=O)O)(C3)C2 | 0.3%
CCCC(C(=O)NC1CCCCC1)N(Cc1ccco1)C(=O)CNS(=O)(=O)c1ccccc1 (stereo not drawn) | -19%
CC1=C(C(N)=O)C(c2ccccc2)n2nc(-c3ccncc3)nc2N1 (stereo not drawn) | 11.2%
C/C(=N\NC(=O)c1ccc(F)cc1)c1cccc(NC(=O)c2ccco2)c1 | -21.6%
Cc1nn(-c2ccccc2)c(N2CCCCC2)c1/C=N/O | -6.56%
Cc1cc(=O)c2ccccc2s1 | -3.41%
COC(=O)Cc1ccc(NC(=S)NNC(=O)C2CC2)cc1 | 8.2%
Cc1ccnc(N2CCN(c3cc(C)c(C#N)c4nc5ccccc5n34)CC2)c1 | -8.93%
N[C@@H](Cc1ccccc1)C(=O)N1CCC(C(=O)NCC(=O)NCC(=O)O)CC1 (H-F[Inp]GG-OH) | 16.7%
CN(C)CCN(Cc1ccccc1)S(=O)(=O)c1ccc2c(c1)n(C)c(=O)c(=O)n2C | -10.5%
Cn1c(=O)c2c(SCC(=O)Nc3nccs3)nc(C3CC3)nc2n(C)c1=O | 17.6%

SMILES | hERG current change (%, negative = inhibition) at 10uM
CC(=O)c1ccc(OC(C)C(=O)OCC(=O)NCCc2ccccc2)cc1 (stereo not drawn) | -6.63%
Cc1cccc(OCCC(=O)NNC(=O)c2ccoc2C)c1 | -3.74%
CN1CCN(c2cc(N3CCN(C(=O)c4ccco4)CC3)c3c4c(onc24)-c2ccccc2C3=O)CC1 | -0.549%
CCc1nccn1Cc1cc(C=O)ccc1OC.Cl | 17.3%
O=C(CSc1n[nH]c(=O)[nH]c1=O)N/N=C/C=C/c1ccccc1 | 18.1%
O=C(CN1C(=O)S/C(=C\c2ccccn2)C1=O)Nc1ccccc1 | 16.3%
COc1cccc(N=Cc2c[nH][nH]c2=O)c1 | 5.26%
CCc1ccccc1NC(=O)NC1CCCCCCC1 | 18.1%
CSCC[C@H](NC(=O)c1ccc2ccccc2c1)C(=O)N1CCC2(CC1)NCCc1[nH]cnc12 | -1.09%
O=C(c1ccc(Cl)cc1)C1CCCN(C(=O)c2csnn2)C1 (stereo not drawn) | 0.734%
COc1cccc(CNC(=O)CCC2CCCN(C(=O)c3cccc4c(C)c(C)[nH]c34)C2)c1 (stereo not drawn) | 19.8%
COc1ccnc(Oc2ccc(F)cc2)c1C#N | 3.33%
CCCc1nc2c(s1)CCc1onc(-c3ccc(Br)cc3)c1-2 | 8.88%
Cc1ccc(S(=O)(=O)N2CCCCCC2)cc1C(=O)Nc1cccnc1 | -45.5%
Cc1cc(=O)oc2c(CN3CCN(C)CC3)c(O)c(Cl)cc12 | -12.9%
O=C(COc1ccc(Br)cc1)NCCCNC(=O)c1ccncc1 | -45.5%
CCOC(=O)c1c(S(=O)(=O)NCC(=O)Nc2cccc(C)c2C)c(C)n(C)c1C | 17.4%
CCNC(=S)N1C2CCC1CC(NC(=O)Nc1ccc(C(=O)OCC)cc1)C2 (stereo not drawn) | 24.3%
Cc1cccc(C(=O)N/N=C2/SCC(=O)N2Cc2ccccc2)c1 | -8.06%
Brc1ccccc1OCCCCCN1CCOCC1.O=C(O)C(=O)O | -32.4%
CCCCCCC/C=N/Nc1nnc(Cc2ccccc2)c(=O)[nH]1 | 33.2%
